Source: the supplement of paper PMC10338343
± gives the standard deviation. The full ranking holds about 5,500 sequences; the median of “pre-steady-state target cleavage rate” is about 0.1, and the highest 2% start at about 0.64. Only a part is listed here, and it is no random draw.

Each sequence was assayed on MIWI (PIWIL1) piRISC loaded with piRNA #2 (30 nt) (assay: pre-steady-state target cleavage rate (min^-1); MIWI and MILI are mouse PIWI proteins and EfPiwi is from a freshwater sponge; tags in brackets are library labels; higher = faster piRNA-guided slicing of the target). Details: guide: piRNA #2 5'p-UUAGGUAACCCAGUAGAUCCAGAGGAAUUC; auxiliary factor: 500 nM mouse GTSF1.
Summary of the method: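 Cleave-'n-Seq reactions paired 0.1 nM transcribed, DNA-blocked target RNA library with 1 nM active affinity-purified piRISC holding one synthetic guide, plus or minus 500 nM GTSF1 partner protein, in HEPES–potassium acetate buffer at 33 °C for 0–8 or 0–960 min. After sequencing of uncleaved targets and normalisation to depth and weakly complementary targets, the pre-steady-state cleavage rate was taken from a burst-and-steady-state fit. Three trials were pooled, and k3 was capped at 0.0001 min^-1.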

GAAUUCCUCUGGAUCUACUGGGUUUCCAAA and CUUUUCCUCUGGAUCUACUGGCUUACGUAA are within error of each other in “pre-steady-state target cleavage rate” value: 0.143 ± 0.045 for the first, 0.0801 ± 0.019 for the second.

Going from CUUAAGCUGUGGAACUACUGGGUUACCUAA to GAAUUCCUCUGGAUCUACUGGGUCACCUAA, the “pre-steady-state target cleavage rate” value rises from 0.075 ± 0.03 to 0.232 ± 0.054.

Going from CUAUUCCUCUGGAUCUUCUGCGUUACCUAA to CUUAAGCUCUGCAUCUACUGGGUUACCUUA, the “pre-steady-state target cleavage rate” value falls from 0.243 ± 0.034 to 0.0877 ± 0.015.

First: CUUAAGGUCUGGAACUACUGGGUUUCCUAA
Second: CAAUUCCUGCUGGAUCUACUGGGUUACCUAA
The “pre-steady-state target cleavage rate” value of the first is lower: 0.0283 ± 0.013 for the first, 0.473 ± 0.051 for the second.

CUAUUGCUGUGGAUCUACUGGGUUACCUAA and CUUUUCCUCUGGAUCUACUGGGUUACCUGA are within error of each other in “pre-steady-state target cleavage rate” value: 0.322 ± 0.044 for the first, 0.509 ± 0.15 for the second.

Compared with CUUAAGGAGACCAUCUACAGCGUUACCUAA, CUAAUCCACUGGAUCUACUGGGUUACCUAA is higher in “pre-steady-state target cleavage rate” value: 0.00739 ± 0.0012 for the first, 0.441 ± 0.041 for the second.

Compared with CUUAUCCUCUGGUUCUACUGGCUUACCUAA, GAAUUCGUCUGGAUGUACUGGGUUACCUAA is lower in “pre-steady-state target cleavage rate” value: 0.122 ± 0.012 for the first, 0.0696 ± 0.037 for the second.

First: CUUAAGGUACUGGAUCUACUGGGUUACCUAA
Second: GAAUUCCUGUGGAUCUACUGCGUUACCUAA
The “pre-steady-state target cleavage rate” value of the first is lower: 0.183 ± 0.026 for the first, 0.362 ± 0.053 for the second.

First: CUUAAGCACUGGAUCUACUGGGUUACCAAA
Second: CUUAAGGUCUGGAUCUACUGGGUUUCGUAA
The “pre-steady-state target cleavage rate” value of the first is higher: 0.202 ± 0.025 for the first, 0.0875 ± 0.017 for the second.

CUAUUCCUCUCGAUCUAGUGGGUUACCUAA and CUUAUCCUCUGGAUGUUCUGGGUUACCUAA are within error of each other in “pre-steady-state target cleavage rate” value: 0.353 ± 0.023 for the first, 0.332 ± 0.04 for the second.

GAAUUCCUCUGGAUCUACUGCGUUACCUUA and CUUAUCCUGAGGAUCUACUGGGUUACCUAA are within error of each other in “pre-steady-state target cleavage rate” value: 0.296 ± 0.05 for the first, 0.272 ± 0.034 for the second.

Going from GAAUUCGAGUGGAUCUACUGGGUUACCUAA to CUUAAGGAGACCUAGAUGAGCGUUACCUAA, the “pre-steady-state target cleavage rate” value falls from 0.345 ± 0.033 to 0.00489 ± 0.0017.

GAAUUCCUCUGGAUCUACUGGGUUACUAA and GAAUUCCGCUGGAUCUACUGGGUUACCUAA are within error of each other in “pre-steady-state target cleavage rate” value: 0.423 ± 0.054 for the first, 0.445 ± 0.041 for the second.

CUUAAGGACUGGAUCUACUGGUUUACCUAA and CUUAUCCUCUGGAUCAACUGGCUUACCUAA are within error of each other in “pre-steady-state target cleavage rate” value: 0.0484 ± 0.036 for the first, 0.0658 ± 0.014 for the second.

First: CUUUUCCUCUGGAUCUACUGGGUUACCAUA
Second: CUUAAGCUCUGGAUCUACUGGGUUACACUAA
The “pre-steady-state target cleavage rate” value of the first is higher: 0.437 ± 0.048 for the first, 0.34 ± 0.038 for the second.

Compared with CUUAAGGUCUGGAUCUACUGGGUUACCGUAA, CUAUUCCUCUGGUACUACUGGGUUACCUAA is higher in “pre-steady-state target cleavage rate” value: 0.205 ± 0.036 for the first, 0.459 ± 0.061 for the second.

Compared with CUUAACCUCUGGAUCUACUGGGUUACCUCAA, CAAUUCCUCUGGAUGUACUGCGUUACCUAA is higher in “pre-steady-state target cleavage rate” value: 0.142 ± 0.018 for the first, 0.606 ± 0.1 for the second.

Going from CUUUUCCUCUGUGAUCUACUGGGUUACCUAA to CUUAUCCUCUGUAUCUACUGGGUUACCUAA, the “pre-steady-state target cleavage rate” value falls from 0.374 ± 0.028 to 0.311 ± 0.033.

First: GAAUUCCUCUGGUUCUACUGGCUUACCUAA
Second: CUUAUCGUCUCGAUCUACUGGGUUACCUAA
The “pre-steady-state target cleavage rate” value of the first is lower: 0.193 ± 0.019 for the first, 0.411 ± 0.052 for the second.

First: CUUAUCCUCUGGAUGUACUGGGUUUCCUAA
Second: CUUAAGCUGUCGAUCUACUGGGUUACCUAA
The “pre-steady-state target cleavage rate” value of the first is higher: 0.267 ± 0.06 for the first, 0.061 ± 0.017 for the second.

CUUAAGCUGUGGAUCUACAGGGUUACCUAA and CUUUUCCUCUGGAUCUACAGGGAUACCUAA are within error of each other in “pre-steady-state target cleavage rate” value: 0.146 ± 0.025 for the first, 0.149 ± 0.017 for the second.

First: CAAUACCUCUGGAUCAACUGGGUUACCUAA
Second: CUUAAGGAGACCUACUACUGGGUUACGUAA
The “pre-steady-state target cleavage rate” value of the first is higher: 0.315 ± 0.04 for the first, 0.00667 ± 0.003 for the second.

Compared with GAAUACCUCUGGAUCUACUCGGUUACCUAA, CUUUUCCUCUGGAUCUAGUGGGUUACCUAA is higher in “pre-steady-state target cleavage rate” value: 0.0912 ± 0.018 for the first, 0.212 ± 0.021 for the second.

Going from CUUAAGGUCUGGAUCAACUGGCUUACCUAA to CAAUUCCUCUGCGAUCUACUGGGUUACCUAA, the “pre-steady-state target cleavage rate” value rises from 0.0357 ± 0.013 to 0.623 ± 0.052.

First: CUAUUCCUCUGGAUCUACUGGGUUACCUCA
Second: CUAUACCUCUGGAUCUACUGGCUUACCUAA
The “pre-steady-state target cleavage rate” value of the first is higher: 0.242 ± 0.042 for the first, 0.149 ± 0.025 for the second.

Compared with CUAUUCCUCUGGAUCUACUGGGUUACGUUA, CUUUUCCUCUGGAUCUACUGGGUAACCUAA is lower in “pre-steady-state target cleavage rate” value: 0.401 ± 0.055 for the first, 0.216 ± 0.033 for the second.

Compared with CUUAACCUCUGGAUCUAGUGGGUUUCCUAA, CUUAAGGAGACCUACAACUGGGUAACCUAA is lower in “pre-steady-state target cleavage rate” value: 0.0372 ± 0.0055 for the first, < 0.0001 for the second.

Compared with CAAUUCCUCUGGAACUAGUGGGUUACCUAA, CUUAUCCUCUGGAUGAUCUGGGUUACCUAA is lower in “pre-steady-state target cleavage rate” value: 0.258 ± 0.029 for the first, 0.00979 ± 0.0035 for the second.

First: CUUAAGGAGACGACCUACUGGGUUACCUAA
Second: CAAUUCCUGUGGAUCUACUGGGUUACCUAA
The “pre-steady-state target cleavage rate” value of the first is lower: 0.0052 ± 0.0021 for the first, 0.425 ± 0.051 for the second.

CUUUUCCUCUGGAUCUACUGGGAUACGUAA and CUUAAGCUCUCCUUCUACUGGGUUACCUAA are within error of each other in “pre-steady-state target cleavage rate” value: 0.229 ± 0.042 for the first, 0.224 ± 0.024 for the second.

Compared with GAAUUCCUUCUGGAUCUACUGGGUUACCUAA, CUUAAGGUCUGGAGUCUACUGGGUUACCUAA is lower in “pre-steady-state target cleavage rate” value: 0.403 ± 0.041 for the first, 0.0832 ± 0.031 for the second.

Compared with CUUUUCCUCUGGAUCUACUGGGCUUACCUAA, CUAUUCCUCUGGAUCUACUGGGUAACGUAA is higher in “pre-steady-state target cleavage rate” value: 0.0685 ± 0.013 for the first, 0.304 ± 0.054 for the second.

Going from CUUUUCGUCUGGAACUACUGGGUUACCUAA to CUUAAGGACUGGAUCAACUGGGUUAGCUAA, the “pre-steady-state target cleavage rate” value falls from 0.364 ± 0.035 to 0.0166 ± 0.015.

Compared with CAAUUCCUCUGGUUCUACUCGGUUACCUAA, CUUAAGGACUCGAUCUACUGGGUUACCUUA is lower in “pre-steady-state target cleavage rate” value: 0.167 ± 0.014 for the first, 0.00924 ± 0.0031 for the second.

Going from CUUAUCCUGUGGAUCUACUCGGUUACCUAA to CUUAUCCUCUGGAUCUAGUGGGUUACCAAA, the “pre-steady-state target cleavage rate” value rises from 0.0654 ± 0.019 to 0.12 ± 0.018.

Compared with AAAUUCCUCUGGAUCUACUGGGUUACCUAA, CACAUUCCUCUGGAUCUACUGGGUUACCUAA is higher in “pre-steady-state target cleavage rate” value: 0.341 ± 0.062 for the first, 0.5 ± 0.057 for the second.

First: CUUAAGGACAGGAUCUACUGGGUUACGUAA
Second: CUUAAGGAGACGGAUCUACUGGGUUACCUAA
The “pre-steady-state target cleavage rate” value of the first is higher: 0.16 ± 0.045 for the first, 0.0379 ± 0.0064 for the second.

CUAUUCGUCUGGAUCUACUGGGAUACCUAA and CUUAUCCUCUGGAUCUACUGGGAUAGCUAA are within error of each other in “pre-steady-state target cleavage rate” value: 0.331 ± 0.049 for the first, 0.226 ± 0.059 for the second.

First: CUAUUCCUCUGGGAUCUACUGGGUUACCUAA
Second: CUUAAGCUCUGGAUGUACUGGGAUACCUAA
The “pre-steady-state target cleavage rate” value of the first is higher: 0.514 ± 0.042 for the first, 0.0841 ± 0.011 for the second.

Going from CUUAAGGUCUGGAUCUACAGGGUUACGUAA to CAAUUCCUCUCGAUCAACUGGGUUACCUAA, the “pre-steady-state target cleavage rate” value rises from 0.178 ± 0.021 to 0.721 ± 0.053.

First: CUAUUGCUCUGGAUCUACUGGGUUACCAAA
Second: CAAAUCCUCUGGAACUACUGGGUUACCUAA
The “pre-steady-state target cleavage rate” value of the first is lower: 0.252 ± 0.035 for the first, 0.445 ± 0.034 for the second.

Compared with CUAAUGCUCUGGAUCUACUGGGUUACCUAA, “CUUAAGGAGAGGAUCUACUGGGUUACCUAA [g2:g20:cont:t1A]” is lower in “pre-steady-state target cleavage rate” value: 0.105 ± 0.019 for the first, 0.0369 ± 0.012 for the second.

First: CUAUUCCUCUGGAUUACUGGGUUACCUAA
Second: CUUUUCCUCUGCAACUACUGGGUUACCUAA
The “pre-steady-state target cleavage rate” value of the first is higher: 0.492 ± 0.037 for the first, 0.393 ± 0.037 for the second.

Going from GAAUUCCUCUGGAUGAUCUGGGUUACCUAA to CUUAUCCUGUGGAUGUACUGGGUUACCUAA, the “pre-steady-state target cleavage rate” value rises from 0.00973 ± 0.0039 to 0.45 ± 0.061.

Compared with CUUAAGGACUGGAACUACUGGGUUACCUAA, CUAUUCCUCUGGAUCAACUGGGAUACCUAA is higher in “pre-steady-state target cleavage rate” value: 0.0904 ± 0.048 for the first, 0.17 ± 0.022 for the second.

CAAUUGCUCUGGAUCUACUGCGUUACCUAA and GAAUUCCUCUGGAGCUACUGGGUUACCUAA are within error of each other in “pre-steady-state target cleavage rate” value: 0.344 ± 0.052 for the first, 0.28 ± 0.032 for the second.
